# Results taken from PubChem BioAssay AID2147 (National Center for Advancing Translational Sciences (NCATS), 2009).
# Values joined by “and” are separate entries in the source; they are usually repeats but may differ in a detail not shown here. Equal entries are not always repeated. Screen size: about 230,000 compounds; about 3,600 (1.6%) were called active. The inconclusive results got no clear call from the source; some entries with a clear call stand among them for comparison. The call rests on the fitted dose curve; in most records, active means well fitted inhibition curve with a large enough effect (not every such curve was filed as active); inconclusive means small, poorly fitted or top-dose-only effect, or another doubt; inactive means no such curve, though single readings can be large or run the other way. A potency beside an inconclusive call is a rough fit, not a confirmed value.
# Target: Lysine-specific demethylase 4E (Homo sapiens) (UniProt B2RXH2)
# UniProt B2RXH2, sequence (B2RXH2 whole entry, looked up, the tested form may be a part): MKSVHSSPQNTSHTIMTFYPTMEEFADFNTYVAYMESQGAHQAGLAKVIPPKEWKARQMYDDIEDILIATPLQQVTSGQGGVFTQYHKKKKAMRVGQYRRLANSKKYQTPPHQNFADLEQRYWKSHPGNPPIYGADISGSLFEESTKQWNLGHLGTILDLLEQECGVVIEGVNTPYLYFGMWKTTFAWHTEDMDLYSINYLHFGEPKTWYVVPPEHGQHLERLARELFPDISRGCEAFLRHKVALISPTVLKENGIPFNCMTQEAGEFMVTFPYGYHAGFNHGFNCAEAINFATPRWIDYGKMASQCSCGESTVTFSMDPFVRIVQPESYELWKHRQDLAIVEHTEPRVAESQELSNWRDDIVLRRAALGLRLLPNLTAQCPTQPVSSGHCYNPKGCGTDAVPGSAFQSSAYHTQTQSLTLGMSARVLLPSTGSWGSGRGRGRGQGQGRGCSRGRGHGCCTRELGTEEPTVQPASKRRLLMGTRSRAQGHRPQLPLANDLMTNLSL
# Assay: qHTS Assay for Inhibitors of Human Jumonji Domain Containing 2E (JMJD2E)
# Conditions: JMJD2E catalytic domain, FDH-coupled NADH fluorescence (FDH is formaldehyde dehydrogenase); series mostly up to 57.1 µM
# Further: nearly all actives have a fitted effect of over 50% in size.
# Potency means the concentration at half of the fitted maximal effect; tags describe the fitted curve by direction and shape.
row,Structure (SMILES),Potency
1,CC(=O)N(O)CCCCCNC(=O)CCC(=O)N(O)CCCCCNC(=O)CCC(=O)N(O)CCCCCN,active: 6.31 µM and active: 2.51 µM and active: 22.4 µM
2,CC(=O)NS(=O)(=O)c1ccc(NC(=O)c2cc3c(=O)n4ccccc4nc3s2)cc1,"inconclusive: 20 µM [inhibitor, partial curve]"
3,Cc1ccc(C)n1-c1ccc(N2CCOCC2)c([N+](=O)[O-])c1,"inconclusive: 22.4 µM [inhibitor, single point]"
4,O=C(c1cccnc1)N1CCN(Cc2cccc(Br)c2)CC1,"inconclusive: 39.8 µM [inhibitor, single point]"
5,Cc1ncc(C[n+]2csc(CCOC(=O)CC34CC5CC(CC(C5)C3)C4)c2C)c(N)n1,inactive
6,CCn1c(-c2ccc(N(C)C)cc2)nc2ccccc21,"inconclusive: 31.6 µM [inhibitor, partial curve]"
7,Cc1ccc(S(=O)(=O)NC(CC(=O)N2CCc3ccccc32)c2ccco2)cc1 (configuration not stated),inactive
8,COc1ccc(-c2nnc3ccc(SC(C(C)=O)C(C)=O)nn23)cc1OC,"inconclusive: 39.8 µM [inhibitor, single point]"
9,CC(C)(C)c1ccc(OCC(=O)NNC(=S)NC(=O)c2ccccc2[N+](=O)[O-])c(Br)c1,"inconclusive: 39.8 µM [inhibitor, single point]"
10,Cc1cc2ccccc2c(=O)n1CC(=O)NCC(=O)N1CCN(c2cccc(Cl)c2)CC1,"inconclusive: 39.8 µM [inhibitor, single point]"
11,COC(=O)c1cccc(NC(=O)NC23CC4CC(CC(C4)C2)C3)c1,inactive
12,Cc1nn(-c2ccccc2)c2nc(-c3ccncc3)cc(C(=O)NCc3ccco3)c12,"inconclusive: 35.5 µM [inhibitor, single point]"
13,Cc1sc(NC(=O)c2ccco2)nc1-c1ccc2c(c1)CC(C)N2C(=O)C1CC1 (configuration not stated),"inconclusive: 39.8 µM [inhibitor, single point]"
14,CCOc1ccc(NC(=O)c2ccccn2)cc1,"inconclusive: 31.6 µM [inhibitor, single point]"
15,COc1cccc(-c2nnc(SC(C(=O)c3c[nH]c4ccccc34)c3ccccc3)n2C)c1 (configuration not stated),inactive
16,CCCCC(=O)NCc1ccc2c(c1)cc(C)n2C,"inconclusive: 28.2 µM [inhibitor, single point]"
17,CCCn1cc(C(CC(=O)O)C(=O)O)c2ccccc21 (configuration not stated),"inconclusive: 35.5 µM [inhibitor, partial curve]"
18,CC(=O)c1cccc(NC(=O)C(=O)c2cn(CC(=O)N3CCCCC3)c3ccccc23)c1,"inconclusive: 35.5 µM [inhibitor, single point]"
19,O=C(Nc1ccc(N2CCN(C(=O)c3ccc(Cl)cc3)CC2)cc1)c1ccc2c(c1)OCCO2,"inconclusive: 39.8 µM [inhibitor, single point]"
20,Cc1ccc(S(=O)(=O)Nc2ccc3c(c2)CCC3)cc1C,inactive
21,CC(C)C(=O)NC(=S)Nc1sc2c(c1C(N)=O)CCCC2,inactive
22,COc1ccc(OC(C)C(=O)N2CCc3ccccc3C2)cc1 (configuration not stated),inactive
23,Nc1nc(SCC(=O)Nc2ccccc2)nc2nc3c(cc12)CCCC3,"inconclusive: 15.8 µM [inhibitor, partial curve]"
24,Nc1ccc(S(=O)(=O)NC2=NCCCCC2)cc1N,"inconclusive: 35.5 µM [inhibitor, single point]"

row,Structure (SMILES),Potency
1,CC1CCN(S(=O)(=O)c2ccc(NC(=O)Cn3nnc(-c4ccccc4F)n3)cc2)CC1,inactive
2,COc1cc(C2Nc3ccccc3C(=O)N2c2ccccc2)ccc1O (configuration not stated),"inconclusive: 28.2 µM [inhibitor, partial curve]"
3,COc1ccc(CNC(=O)COC(=O)c2ccccn2)cc1,inactive
4,Brc1ccc(OCc2nc(-c3ccccn3)n[nH]2)cc1,"inconclusive: 39.8 µM [inhibitor, single point]"
5,Cc1ccc(-c2nn(-c3cccc(F)c3)cc2CN2CCN(c3ccccn3)CC2)o1,"inconclusive: 25.1 µM [inhibitor, partial curve]"
6,O=c1[nH]c(CN2CCN(c3ccccc3O)CC2)nc2scc(-c3ccccc3Cl)c12,inactive
7,Cc1ccc2cc(CCNC(=O)C(C)(C)C)c(=O)[nH]c2c1,"inconclusive: 35.5 µM [inhibitor, single point]"
8,O=C(Nc1ccc(F)cc1F)Nc1ccccc1C(=O)NCCN1CCNC1=O,"inconclusive: 39.8 µM [inhibitor, single point]"
9,CCN(CC)C(=S)NC(=O)Cc1ccccc1,inactive
10,Cc1cc(C)n(-c2nc(-c3ccc(Cl)c(Cl)c3)cs2)n1,inactive
11,Cc1ncoc1C(=O)Nc1ccc(Oc2ccccc2)cc1,inactive
12,O=C1NC(=O)c2cc(NC(=O)C3CCCCC3)ccc21,"inconclusive: 28.2 µM [inhibitor, partial curve]"
13,CN(C)CCN1C(=O)C2C3C=CC(C3)C2C1=O (configuration not stated),"inconclusive: 39.8 µM [inhibitor, single point]"
14,O=c1c2cc(NC(=S)NC3CCCC3)ccc2nc2n1CCCCC2,"inconclusive: 39.8 µM [inhibitor, single point]"
15,O=C(OCC(=O)N1CCN(c2ccccc2)CC1)c1ccc2ncsc2c1,"inconclusive: 31.6 µM [inhibitor, single point]"
16,Cn1nnnc1SCC(=O)N(C1CCCCC1)C1CCS(=O)(=O)C1 (configuration not stated),inactive
17,Cc1cc(C)c2ccc3c(C)c(C)n(C)c3c2n1,"inconclusive: 25.1 µM [inhibitor, partial curve]"
18,CCc1cc(OCCOCCN(C)C)ccc1Cl,"inconclusive: 22.4 µM [inhibitor, single point]"
19,CCN(CC)C(=O)c1sc(NC(=O)c2ccc(OC)c([N+](=O)[O-])c2)c(C#N)c1C,inactive
20,Nc1nnc(/C=C/c2ccccc2)s1,"inconclusive: 28.2 µM [inhibitor, partial curve]"
21,CCOC(=O)CSC1=C(C#N)C(c2ccco2)C(C(=O)OCc2ccccc2)=C(C)N1 (configuration not stated),"inconclusive: 28.2 µM [inhibitor, single point]"
22,CCOc1cc(S(=O)(=O)N2CCCCC2)ccc1Cl,inactive
23,COCCN1Cc2cccc(C(=O)Nc3ccc(S(=O)(=O)N4CCOCC4)cc3)c2C1=O,"inconclusive: 35.5 µM [inhibitor, single point]"
24,Cn1c(-c2cccs2)nc2ccccc21,"inconclusive: 20 µM [inhibitor, partial curve]"

row,Structure (SMILES),Potency
1,COC(=O)Cc1c(C)nc2nc(-c3ccccc3)[nH]n2c1=O,"inconclusive: 28.2 µM [inhibitor, partial curve]"
2,O=C(OC1CCOC1=O)c1ccc(-c2nc3ccccc3s2)s1 (configuration not stated),"inconclusive: 25.1 µM [inhibitor, partial curve]"
3,COCCCn1c(-c2ccco2)nc2ccccc2c1=O,inactive
4,CCOC(=O)CSc1ccc(-c2nc3ccccc3[nH]2)cn1,"inconclusive: 25.1 µM [inhibitor, partial curve]"
5,CN(Cc1ccccc1)c1nc2c(c(=O)[nH]c(=O)n2C)n1CCSc1nc2ccccc2[nH]1,"inconclusive: 35.5 µM [inhibitor, single point]"
6,CC1Cc2ccccc2N1S(=O)(=O)c1cccc(C(=O)Nc2cccnc2)c1 (configuration not stated),inactive
7,COc1cc(-c2cc(C(=O)Nc3nc4ccccc4s3)c3ccccc3n2)cc(OC)c1OC,"inconclusive: 35.5 µM [inhibitor, single point]"
8,Cc1ccccc1-n1nc(C)c2c(C(=O)NN)cc(-c3ccncc3)nc21,"inconclusive: 39.8 µM [inhibitor, single point]"
9,Cc1ccc(NC(=S)NCC2CCCO2)cc1C (configuration not stated),inactive
10,CN(C(=O)C1CCOC1)c1nnc(-c2cnccn2)s1 (configuration not stated),"inconclusive: 25.1 µM [inhibitor, partial curve]"
11,CCOC(=O)c1[nH]c2ccc(OC)cc2c1NC(=S)N1CCN(c2ccccn2)CC1,"inconclusive: 39.8 µM [inhibitor, single point]"
12,CCCCOc1c(Br)cc(/C=C2\N=C(C)OC2=O)cc1OCC,inactive
13,Cc1cccc(NC(=O)c2nnn(-c3cccc(C(F)(F)F)c3)c2N)c1,"inconclusive: 28.2 µM [inhibitor, single point]"
14,Oc1ccccc1Nc1nc(NCc2ccco2)c2ccccc2n1,inactive
15,Cc1cc(C)nc(NC(=O)CCCC(=O)O)c1,inactive
16,O=C(Nc1ccc(S(=O)(=O)Nc2cnc3ccccc3n2)cc1)c1ccc(Br)o1,"inconclusive: 25.1 µM [inhibitor, partial curve]"
17,COc1cccc(C(=O)CSc2nnnn2C2CCCCC2)c1,inactive
18,COc1ccc(C2=NN(C(=O)CCCC(=O)O)C(c3cccs3)C2)cc1OC (configuration not stated),"inconclusive: 28.2 µM [inhibitor, partial curve]"
19,Fc1ccc(NCc2nnc(SCc3nnc(-c4ccccc4)o3)n2Cc2ccccc2)cc1,inactive
20,O=C(c1ccccc1)c1ccc2nc(-c3ccco3)c(-c3ccco3)nc2c1,"inconclusive: 25.1 µM [inhibitor, partial curve]"
21,CCn1c(=O)cc(SCC(=O)N2CCOCC2)c2ccccc21,"inconclusive: 39.8 µM [inhibitor, single point]"
22,COc1ccc(-c2cc(C(F)(F)F)n3ncc(C(=O)NCc4ccco4)c3n2)cc1,"inconclusive: 31.6 µM [inhibitor, partial curve]"
23,COc1cc(S(=O)(=O)NCCCN2CCOCC2)ccc1-n1cnnn1,"inconclusive: 39.8 µM [inhibitor, single point]"
24,Cc1ccccc1NC(=O)c1cccc2nc3ccccc3nc12,inactive
